# Experimental data published in PubChem BioAssay (NCATS).
# Several values for one entry are separate records, joined by “and”; a condition that tells them apart may be missing. Equal entries are not always repeated. The shares of active, inactive and inconclusive entries below differ from those in the screen. For some assays here: Potencies beside an inconclusive call are fits to weak or partial responses and may not hold up. For some assays here: A note “side channel” means that the fit belongs to a control or component signal, not to the main read-out. Activity calls are given as the source filed them. Unless noted, the call rests on the fitted dose curve; in most records, active means well fitted curve in the direction sought with a large enough effect; inconclusive means small, poorly fitted or top-dose-only effect, or another doubt; inactive means no such curve, though single readings can be large; an effect the other way counts as inactive or inconclusive.
# Columns and labels:
# [1] = target: Calcium and integrin-binding protein 1 (Homo sapiens) (UniProt Q99828); experiment: Primary qHTS for Identification of Calcium Integrin Binding Protein 1 (CIB1) Competitor (AID 1508620); further: potency means the concentration at half of the fitted maximal effect;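 on activity change, negative = inhibition: GST tagged CIB1 binding a fluorescein labelled alphaIIb integrin peptide tracer; top concentration of the series differs between compounds; on the % scale 0 is the no-effect control and ±100 the full control effect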
# Summary of the method: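 Fluorescence polarization competition: CIB1-GST (1 uM final) preincubated with compound 15 min at room temperature, then FITC-labeled alphaIIb peptide (100 nM final) added for another 15 min. Polarization read at Ex 480/Em 540.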
# [2] = target: Rap guanine nucleotide exchange factor 3 (Homo sapiens) (UniProt O95398); experiment: Confirmatory qHTS for antagonist of cAMP-regulated guanine nucleotide exchange factor 3 (EPAC1) (AID 1645880); conditions: EPAC1 Rap1B-BODIPY-GDP exchange, fluorescence; activity, negative = inhibition: at 115 µM (top of the series); further: potency means the concentration at half of the fitted maximal effect; nearly all actives have a fitted effect of over 55% in size
# Summary of the method: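 Released BODIPY-GDP fluoresces less than Rap1-bound BODIPY-GDP; the signal is followed at 480/540 nm at 5-min intervals over 30 min, after 5 min at room temperature. Reactions contain 100 nM EPAC1, 250 nM RAP1B-BODIPY-GDP and 50 uM GDP; results are normalized to ATA and DMSO.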
# [3] = target: Rap guanine nucleotide exchange factor 4 (Homo sapiens) (UniProt Q8WZA2); experiment: Confirmatory qHTS for antagonist of cAMP-regulated guanine nucleotide exchange factor 4 (EPAC2) (AID 1645885); conditions: activity change, negative = inhibition: at 12.7 µM (top of the series) unless noted; further: potency means the concentration at half of the fitted maximal effect; nearly all actives have a fitted effect of over 25% in size
# [4] = target: Rap guanine nucleotide exchange factor 3 (Homo sapiens) (UniProt O95398); experiment: Counterscreen qHTS for agonist of cAMP-regulated guanine nucleotide exchange factor 3 (EPAC1) (AID 1645889); conditions: EPAC1 Rap1B-BODIPY-GDP exchange, fluorescence; activation: at 154 µM (top of the series) unless noted; further: nearly all actives have a fitted effect of over 40% in size; further: potency means the concentration at half of the fitted maximal effect; on activation: % of control where 0% means no effect
# Summary of the method: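 Measured: fluorescence of BODIPY-GDP bound to Rap1B, which falls as exchange proceeds. Conditions include 50 uM competing GDP, 5 and 30 min reads, and a later cAMP challenge for antagonist detection.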
# [5] = target: Lysosomal alpha-glucosidase (Homo sapiens) (UniProt P10253); experiment: Confirmation of Inhibitors and Activators of Purified Human alpha-Glucosidase (AID 2115; active means well fitted curve in either direction with a large enough effect; inconclusive means small, poorly fitted or top-dose-only effect)
# Summary of the method: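 Fluorogenic 4-MU-substrate hydrolysis (400 uM substrate, 4 nM human enzyme) over 20 min at room temperature, pH 5.0 citrate buffer plus 0.005% Tween-20; NaOH/glycine stop, then ex 365/em 440 nm read. Titration up to 77 uM; Hill-equation AC50, normalized to no-enzyme and full-activity controls.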
# [6] = qHTS for Inhibitors of Ubiquitin-specific Protease USP2a Using CHOP2 as the Reporter: K633 Counterscreen (AID 652168); further: % of control where 0% means no effect
# Summary of the method: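 Detection-system control: fluorescence of K48-linked DiUb-4IQF substrate (100 nM as added) tracked over time, Ex 525/Em 598, with pinned compounds and no enzyme, in pH 8 Tris buffer containing beta-mercaptoethanol and 0.05% Chaps.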
# [7] = qHTS for Inhibitors of Ubiquitin-specific Protease USP2a Using CHOP2 as the Reporter: Cytotox Assay (AID 652170); further: nearly all actives have a fitted effect of over 70% in size; further: potency means the concentration at half of the fitted maximal effect
# Summary of the method: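 Cytotoxicity read as ATP luminescence (CellTiter-Glo) after 72 hr compound treatment at 37 deg C. Cells: HCT116, 600/well in DMEM plus 10% FBS. Normalization between DMSO-treated cells and cell-free wells.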
# [8] = target: Rap guanine nucleotide exchange factor 3 (Homo sapiens) (UniProt O95398); experiment: Confirmatory qHTS for agonist of cAMP-regulated guanine nucleotide exchange factor 3 (EPAC1) (AID 1645881); conditions: EPAC1 Rap1B BODIPY-GDP exchange fluorescence; activation: at 154 µM (top of the series), 100% = cAMP control response;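 further: EPAC1 catalysed release of BODIPY-GDP from Rap1B seen as fluorescence loss; nearly all actives have a fitted effect of over 75% in size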
# [9] = target: DNA polymerase eta (Homo sapiens) (UniProt Q9Y253); experiment: qHTS for Inhibitors of Polymerase Eta: Confirmatory Assay for Cherry-picked Compounds (AID 720502); conditions: Pol eta primer extension, TAMRA/BHQ fluorescence, 10 min; further: potency means the concentration at half of the fitted maximal effect
# Summary of the method: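 Enzyme at 10 nM is mixed with pin-transferred compound and left 15 min at room temperature. Substrate (50 nM final) is then added, and plates are read at 0 min and after 10 min.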
# [10] = target: RecQ-like DNA helicase BLM (Homo sapiens) (UniProt P54132); experiment: qHTS for Inhibitors of WRN Helicase: BLM Helicase Counterscreen for WRN Inhibitors (AID 720503); further: potency means the concentration at half of the fitted maximal effect; nearly all actives have a fitted effect of over 60% in size
# Summary of the method: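 Reactions were started with 100 nM DNA substrate and 2 mM ATP (final) after compound and 1 nM BLM stood 15 min at room temperature in Tris-HCl pH 8.0 buffer with NaCl, MgCl2, DTT and Tween-20. Two red-fluorescence reads 15 min apart were normalized against DMSO and no-enzyme wells.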
# [11] = Counterscreen qHTS for small molecule stabilizers of the endoplasmic reticulum resident proteome: GLuc-NoTag assay (AID 1508627); conditions: Gaussia luciferase NoTag secretion counterscreen, luminescence, thapsigargin 100 nM for final 4 h; activity change, negative = inhibition: at 76.4 µM (top of the series); further: potency means the concentration at half of the fitted maximal effect;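 on activity change, negative = inhibition: 0% = thapsigargin alone and -100% = DMSO vehicle control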
# Summary of the method: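 Secreted GLuc lacking the SERCaMP modification is measured in SH-SY5Y cells exposed to compound for 19 h and then to thapsigargin (100 nM, 4 h) to deplete ER calcium; hits retested at 11 concentrations, up to 76.6 uM.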
# [12] = Confirmatory qHTS for small molecule stabilizers of the endoplasmic reticulum resident proteome: Secreted ER Calcium Modulated Protein (SERCaMP) assay (AID 1508628); further: potency means the concentration at half of the fitted maximal effect; nearly all actives have a fitted effect of over 40% in size
# Summary of the method: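 Reporter secretion upon ER calcium depletion (100 nM thapsigargin, 4 h, 37C) is measured as medium luminescence with coelenterazine, after 16 h compound pretreatment of SH-SY5Y-GLuc-SERCaMP cells; primary at three concentrations up to 38.3 uM, follow-up at 11 (up to 76.6 uM).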
# [13] = Primary qHTS for small molecule stabilizers of the endoplasmic reticulum resident proteome: Secreted ER Calcium Modulated Protein (SERCaMP) assay (AID 1508630); conditions: SH-SY5Y GLuc-SERCaMP (Gaussia luciferase released on ER calcium loss) secretion, thapsigargin, luminescence; activity change, negative = inhibition: at 38.4 µM (top of the series) unless noted; further: potency means the concentration at half of the fitted maximal effect
# Summary of the method: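 The SH-SY5Y reporter protocol was run at 3 concentrations up to 38.3 uM (primary) or 11 concentrations (follow-up): 16 h compound, 100 nM thapsigargin for 4 h, then extracellular luciferase luminescence.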
# [14] = Cell Viability qHTS for small molecule stabilizers of the endoplasmic reticulum resident proteome (AID 1508629); conditions: cell viability counter-screen, 100 nM thapsigargin for final 4 h;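 further: potency means the concentration at half of the fitted maximal effect; compound exposure about 46 h in total before the viability read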
# [15] = AP1 Signaling Pathway (AID 357; active means well fitted curve in either direction with a large enough effect, not every such curve was filed as active; inconclusive means small, poorly fitted or top-dose-only effect, or another doubt;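 further: ME-180 reporter cells stimulated with EGF at its EC50 level; top concentration of the series differs between compounds; on the % scale 0 is the no-effect control and ±100 the full control effect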); conditions: ME-180 AP-1-bla reporter, EGF-induced, beta-lactamase ratio, 5 h; at 7.69 µM (top of the series) unless noted
# Summary of the method: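 Read-out was the 460nm/530nm emission ratio (excitation 405nm) after CCF4 loading for 2.5 hours at room temperature. Cells carried an AP-1-driven beta-lactamase reporter, were stimulated with EC50 EGF plus compound for 5 hours, and AC50 values came from titrations.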
# [16] = NFAT Signaling Pathway (AID 444; active means well fitted curve in either direction with a large enough effect, not every such curve was filed as active; inconclusive means small, poorly fitted or top-dose-only effect, or another doubt;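 further: carbachol stimulus at about its EC50 of 1 µM final; on the % scale 0 is the no-effect control and ±100 the full control effect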); conditions: Jurkat NFAT-bla M1, carbachol, beta-lactamase ratio, 5 h; at 7.69 µM (top of the series) unless noted
# Summary of the method: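 Jurkat cells carrying an NFAT-driven β-lactamase reporter and co-transfected muscarinic M1 receptor were treated with compound plus carbachol (1 uM final, an EC50 level) for 5 h at 37 °C. CCF4 loading followed for 1 h at RT; 460/530 nm ratio gave %activity.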
# [17] = Stat Signaling Pathway (AID 446; active means well fitted curve in either direction with a large enough effect, not every such curve was filed as active; inconclusive means small, poorly fitted or top-dose-only effect, or another doubt;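 further: ME-180 cervical cancer cells given 40 pM IL-6 alongside compound; SIE-controlled beta-lactamase reporter measured as 460/530 nm FRET emission ratio; top concentration of the series differs between compounds; on the % scale 0 is the no-effect control and ±100 the full control effect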); conditions: ME-180 SIE beta-lactamase reporter, IL-6 stimulated, 5 h; at 7.69 µM (top of the series) unless noted
# Summary of the method: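 FRET read-out (405 nm excitation, 460/530 nm emission) of a beta-lactamase reporter under a STAT-inducible element in ME-180 cervical carcinoma cells. Cells with compound receive 40 pM IL-6 for 5 h. Values are normalised to AC90 stimulation and AC90 JAK-inhibitor controls.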
# [18] = target: Mitogen-activated protein kinase 10 (Mus musculus) (UniProt Q61831); experiment: JNK3 AlphaScreen Assay (AID 530; active means well fitted curve in either direction with a large enough effect, not every such curve was filed as active; inconclusive means small, poorly fitted or top-dose-only effect, or another doubt;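 further: kinase came from lysate of stimulated human HepG2 cells; signal reports phosphorylation of biotinylated GST-cJun 1-79 at Ser73 with 10 µM ATP; potency means the concentration at half of the fitted maximal effect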); conditions: JNK3 lysate, c-Jun phosphorylation; activity change, negative = inhibition: at 57.1 µM (top of the series)
# Summary of the method: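 Phosphorylation of biotinylated GST-cJun(1-79) at Ser73 is measured by AlphaScreen proximity luminescence. Enzyme is JNK3 in HepG2 lysates activated with interleukin-1beta and tumor necrosis factor alpha; ATP is 10 uM final.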
# [19] = qHTS Assay for Identification of Small Molecule Agonists for Hypoxia Response Element Signaling Pathway (AID 914; active means well fitted activation curve with a large enough effect in the signal ratio, with a control signal flat, not every such curve was filed as active; inconclusive means small, poorly fitted or top-dose-only effect, or effect the other way, or a change in a side signal; the % refers to the signal ratio; further: potency means the concentration at half of the fitted maximal effect); conditions: ME-180 (cervical carcinoma) HRE-bla reporter, beta-lactamase ratio, CoCl2, 17 h; activation: stronger effect = higher value
# Summary of the method: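 Positive modulation of EC50 CoCl2-induced hypoxia response element signaling is measured in ME-180 cells with a beta-lactamase reporter. Compounds are titrated, incubation runs 17 hours, and %Activity derives from the blue/green ratio.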
# Tags describe the fitted curve by direction and shape or compound fluorescence and quenching.
# UniProt Q99828, sequence (Q99828 whole entry, looked up): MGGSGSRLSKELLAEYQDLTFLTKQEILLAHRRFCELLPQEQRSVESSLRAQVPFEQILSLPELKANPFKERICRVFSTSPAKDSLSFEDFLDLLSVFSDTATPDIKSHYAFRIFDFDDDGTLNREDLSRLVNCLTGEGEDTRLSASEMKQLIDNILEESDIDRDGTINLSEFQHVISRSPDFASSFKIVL
# UniProt O95398, sequence (O95398 whole entry, looked up): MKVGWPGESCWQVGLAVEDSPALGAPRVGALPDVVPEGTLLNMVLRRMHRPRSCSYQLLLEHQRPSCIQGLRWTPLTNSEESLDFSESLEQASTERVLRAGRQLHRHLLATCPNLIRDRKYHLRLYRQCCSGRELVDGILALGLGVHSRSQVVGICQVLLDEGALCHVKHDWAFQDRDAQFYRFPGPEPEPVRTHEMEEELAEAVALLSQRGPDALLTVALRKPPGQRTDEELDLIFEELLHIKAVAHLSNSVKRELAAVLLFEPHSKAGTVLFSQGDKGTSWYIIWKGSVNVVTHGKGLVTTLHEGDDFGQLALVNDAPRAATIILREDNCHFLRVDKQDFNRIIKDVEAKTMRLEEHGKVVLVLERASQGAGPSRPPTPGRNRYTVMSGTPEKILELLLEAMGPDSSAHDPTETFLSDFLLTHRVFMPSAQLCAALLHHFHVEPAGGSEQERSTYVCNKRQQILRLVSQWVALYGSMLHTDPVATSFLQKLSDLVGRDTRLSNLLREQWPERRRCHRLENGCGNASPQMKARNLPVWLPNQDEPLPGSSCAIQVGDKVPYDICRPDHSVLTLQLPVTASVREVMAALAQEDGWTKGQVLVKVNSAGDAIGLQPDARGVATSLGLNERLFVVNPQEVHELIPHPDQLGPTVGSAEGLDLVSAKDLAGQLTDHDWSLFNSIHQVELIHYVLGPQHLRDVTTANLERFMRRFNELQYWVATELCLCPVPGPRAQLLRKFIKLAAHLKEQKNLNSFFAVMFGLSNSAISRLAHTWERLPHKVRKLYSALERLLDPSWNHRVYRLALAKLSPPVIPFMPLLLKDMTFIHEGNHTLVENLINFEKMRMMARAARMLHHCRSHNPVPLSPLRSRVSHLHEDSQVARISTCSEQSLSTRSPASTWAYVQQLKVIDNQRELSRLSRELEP
# UniProt Q8WZA2, sequence (Q8WZA2 whole entry, looked up): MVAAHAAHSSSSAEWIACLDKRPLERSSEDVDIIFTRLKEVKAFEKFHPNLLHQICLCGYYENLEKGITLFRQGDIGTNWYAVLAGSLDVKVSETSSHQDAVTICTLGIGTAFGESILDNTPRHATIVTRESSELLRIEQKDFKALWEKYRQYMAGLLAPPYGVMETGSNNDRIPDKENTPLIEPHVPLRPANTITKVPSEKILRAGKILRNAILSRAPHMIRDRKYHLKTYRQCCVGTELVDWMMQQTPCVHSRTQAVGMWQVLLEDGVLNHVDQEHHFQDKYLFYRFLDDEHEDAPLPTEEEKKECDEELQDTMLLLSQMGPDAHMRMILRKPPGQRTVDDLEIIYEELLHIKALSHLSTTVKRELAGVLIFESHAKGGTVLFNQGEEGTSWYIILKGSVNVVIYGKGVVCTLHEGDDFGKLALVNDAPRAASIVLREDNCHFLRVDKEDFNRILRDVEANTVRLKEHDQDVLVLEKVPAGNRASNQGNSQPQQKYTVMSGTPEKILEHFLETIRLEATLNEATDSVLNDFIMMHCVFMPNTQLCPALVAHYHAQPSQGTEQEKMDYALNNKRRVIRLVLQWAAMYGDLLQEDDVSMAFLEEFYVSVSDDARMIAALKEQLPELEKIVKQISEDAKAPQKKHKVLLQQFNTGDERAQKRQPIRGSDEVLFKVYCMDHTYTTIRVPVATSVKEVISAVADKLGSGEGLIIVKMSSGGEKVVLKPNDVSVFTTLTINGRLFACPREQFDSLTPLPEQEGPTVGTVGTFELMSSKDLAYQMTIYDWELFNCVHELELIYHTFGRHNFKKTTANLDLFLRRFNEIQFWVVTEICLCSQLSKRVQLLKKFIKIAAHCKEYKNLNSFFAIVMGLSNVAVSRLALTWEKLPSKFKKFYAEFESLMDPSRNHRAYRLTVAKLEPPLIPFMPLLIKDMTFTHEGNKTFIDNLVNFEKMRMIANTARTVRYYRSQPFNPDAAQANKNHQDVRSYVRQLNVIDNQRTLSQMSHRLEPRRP
# UniProt Q9Y253, sequence (Q9Y253 whole entry, looked up): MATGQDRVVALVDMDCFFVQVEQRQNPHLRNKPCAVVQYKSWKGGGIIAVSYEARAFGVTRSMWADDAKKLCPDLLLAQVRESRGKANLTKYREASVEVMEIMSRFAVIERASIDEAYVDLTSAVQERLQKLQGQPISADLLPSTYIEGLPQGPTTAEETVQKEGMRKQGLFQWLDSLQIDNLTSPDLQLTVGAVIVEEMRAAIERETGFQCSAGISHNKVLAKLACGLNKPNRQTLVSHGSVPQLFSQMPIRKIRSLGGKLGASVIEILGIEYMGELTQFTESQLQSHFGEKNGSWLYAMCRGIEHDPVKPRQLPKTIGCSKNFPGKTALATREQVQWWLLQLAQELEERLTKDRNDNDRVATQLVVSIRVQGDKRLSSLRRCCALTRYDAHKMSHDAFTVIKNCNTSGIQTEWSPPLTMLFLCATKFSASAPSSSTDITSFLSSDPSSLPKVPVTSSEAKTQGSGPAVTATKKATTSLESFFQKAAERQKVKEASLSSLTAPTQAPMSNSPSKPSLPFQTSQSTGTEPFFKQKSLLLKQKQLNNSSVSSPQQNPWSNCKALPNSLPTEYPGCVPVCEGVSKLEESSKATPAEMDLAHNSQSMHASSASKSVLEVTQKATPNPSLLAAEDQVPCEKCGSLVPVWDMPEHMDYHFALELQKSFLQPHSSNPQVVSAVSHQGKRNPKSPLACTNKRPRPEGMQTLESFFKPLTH
# UniProt P54132, sequence (P54132 whole entry, looked up): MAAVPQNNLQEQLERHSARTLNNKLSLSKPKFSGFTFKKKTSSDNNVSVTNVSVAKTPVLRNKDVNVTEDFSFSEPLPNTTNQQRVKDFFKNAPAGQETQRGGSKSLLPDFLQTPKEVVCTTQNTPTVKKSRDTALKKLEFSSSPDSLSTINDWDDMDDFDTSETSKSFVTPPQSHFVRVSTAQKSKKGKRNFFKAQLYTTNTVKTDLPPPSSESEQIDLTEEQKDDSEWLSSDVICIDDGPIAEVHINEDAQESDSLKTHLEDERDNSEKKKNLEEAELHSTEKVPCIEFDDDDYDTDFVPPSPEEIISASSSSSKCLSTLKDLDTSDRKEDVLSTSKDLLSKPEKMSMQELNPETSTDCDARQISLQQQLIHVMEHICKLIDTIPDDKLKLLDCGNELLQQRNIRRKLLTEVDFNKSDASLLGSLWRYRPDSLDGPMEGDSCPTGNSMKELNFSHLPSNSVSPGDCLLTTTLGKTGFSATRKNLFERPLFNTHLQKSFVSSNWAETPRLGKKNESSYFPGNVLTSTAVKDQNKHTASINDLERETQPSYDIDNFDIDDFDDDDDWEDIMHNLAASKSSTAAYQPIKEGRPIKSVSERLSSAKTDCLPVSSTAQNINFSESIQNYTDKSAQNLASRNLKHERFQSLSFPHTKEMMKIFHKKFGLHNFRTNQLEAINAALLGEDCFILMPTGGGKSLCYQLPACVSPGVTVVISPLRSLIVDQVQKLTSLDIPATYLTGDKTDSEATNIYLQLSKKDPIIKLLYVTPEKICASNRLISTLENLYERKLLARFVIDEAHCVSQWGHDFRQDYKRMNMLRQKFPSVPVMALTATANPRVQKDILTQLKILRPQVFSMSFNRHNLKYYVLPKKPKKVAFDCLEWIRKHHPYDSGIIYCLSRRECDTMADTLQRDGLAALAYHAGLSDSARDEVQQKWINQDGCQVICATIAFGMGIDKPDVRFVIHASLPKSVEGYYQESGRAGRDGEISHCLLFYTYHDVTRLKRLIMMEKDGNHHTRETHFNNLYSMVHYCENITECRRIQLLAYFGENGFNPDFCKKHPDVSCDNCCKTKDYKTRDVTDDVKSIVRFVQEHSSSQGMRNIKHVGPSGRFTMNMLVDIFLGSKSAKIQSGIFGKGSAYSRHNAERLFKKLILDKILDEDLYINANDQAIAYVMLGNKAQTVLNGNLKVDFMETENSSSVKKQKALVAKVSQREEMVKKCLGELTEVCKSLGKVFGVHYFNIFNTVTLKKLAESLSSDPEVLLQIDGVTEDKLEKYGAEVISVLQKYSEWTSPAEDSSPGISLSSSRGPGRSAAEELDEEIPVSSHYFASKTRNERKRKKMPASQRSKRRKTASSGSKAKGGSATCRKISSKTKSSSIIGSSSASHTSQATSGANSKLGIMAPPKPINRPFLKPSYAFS
compound,measurement,setting,value
CC(=O)NC(c1cccs1)c1cc(Br)c2cccnc2c1O (stereo not drawn),Potency,[1],"inconclusive: 35.5 µM [inhibitor, full curve] and inconclusive: 56.2 µM [inhibitor, partial curve, poor fit]"
same,Potency,[2],"inconclusive: 50.1 µM [inhibitor, partial curve, poor fit]"
same,Potency,[3],"inconclusive: 6.01 µM [inhibitor, single point]"
same,Potency,[4],"inconclusive: 0.0112 µM [activator, full curve, poor fit]"
COC(=O)c1ccc(N2CCN(S(=O)(=O)c3ccc4c(c3)CC(=O)N4)CC2)cc1,Potency,[5],"inconclusive: 25.9 µM [inhibitor, partial curve]"
same,Potency,[1],inactive
O=C(Nc1nc(-c2ccccc2)cs1)c1ccncc1NS(=O)(=O)c1ccc2ccccc2c1,Potency,[6],inactive
same,Potency,[7],"inconclusive: 13.2 µM [cytotoxic, partial curve, poor fit]"
same,Potency,[1],"inconclusive: 39.8 µM [inhibitor, partial curve]"
O=C(Nc1nc(-c2ccccc2)cs1)c1ccncc1NS(=O)(=O)c1ccc(F)c(F)c1,Potency,[6],inactive
same,Potency,[1],"inconclusive: 79.4 µM [inhibitor, single point]"
O=C(Nc1nc(-c2ccccc2)cs1)c1ccncc1NS(=O)(=O)c1ccc(F)cc1Cl,Potency,[7],inactive
same,Potency,[1],"inconclusive: 79.4 µM [inhibitor, partial curve]"
COc1ccc(S(=O)(=O)Nc2cnccc2C(=O)Nc2nc(-c3ccccc3)cs2)cc1,Potency,[6],inactive
same,Potency,[1],"inconclusive: 39.8 µM [inhibitor, partial curve]"
Cc1ccccc1S(=O)(=O)Nc1cnccc1C(=O)Nc1nc(-c2ccccc2)cs1,Potency,[6],inactive
same,Potency,[7],active: 18.7 µM
same,Potency,[1],"inconclusive: 44.7 µM [inhibitor, partial curve]"
COc1cccc(-c2csc(NC(=O)c3ccncc3NS(=O)(=O)c3ccc(C)cc3)n2)c1,Potency,[6],inactive
same,Potency,[7],"inconclusive: 16.6 µM [cytotoxic, partial curve]"
same,Potency,[1],"inconclusive: 50.1 µM [inhibitor, partial curve]"
Cc1ccc(S(=O)(=O)Nc2cnccc2C(=O)Nc2nc(-c3ccccc3)cs2)cc1,Potency,[7],"inconclusive: 20.9 µM [cytotoxic, partial curve, poor fit] and active: 18.7 µM"
same,Potency,[1],"inconclusive: 39.8 µM [inhibitor, full curve] and inconclusive: 14.1 µM [inhibitor, full curve, poor fit]"
O=[S+]([O-])(NCc1nccs1)c1ccc(Nc2nc(-c3ccccc3)cs2)cc1,Potency,[6],inactive
same,Potency,[1],"inconclusive: 50.1 µM [inhibitor, partial curve]"
Cc1cccc(S(=O)(=O)Nc2cnccc2C(=O)Nc2nc(-c3ccccc3)cs2)c1,Potency,[7],"inconclusive: 18.7 µM [cytotoxic, partial curve]"
same,Potency,[1],"inconclusive: 56.2 µM [inhibitor, partial curve, poor fit]"
Cc1ccc(-c2csc(NC(=O)c3ccncc3NS(=O)(=O)c3ccc(C)cc3)n2)cc1,Potency,[6],inactive
same,Potency,[1],"inconclusive: 17.8 µM [inhibitor, full curve]"
CCC(=O)NC(c1cccs1)c1cc(Cl)c2cccnc2c1O (stereo not drawn),Potency,[1],"inconclusive: 44.7 µM [inhibitor, partial curve, poor fit]"
same,Potency,[8],inactive
same,Potency,[3],"inconclusive: 3.79 µM [inhibitor, full curve, poor fit]"
same,Potency,[4],inactive
COc1cccc(Nc2nn3c(=O)c4ccccc4nc3s2)c1,Potency,[9],"inconclusive: 84.9 µM [inhibitor, single point]"
same,Potency,[1],inactive
Cc1ccc(S(=O)(=O)Nc2cnccc2C(=O)Nc2cccc3ccccc23)cc1,Potency,[7],"inconclusive: 14.8 µM [cytotoxic, partial curve, poor fit]"
same,Potency,[1],"inconclusive: 50.1 µM [inhibitor, partial curve, poor fit]"
O=c1c2ccccc2nc2sc(Nc3cccc(N4CCNCC4)c3)nn12,Potency,[10],"inconclusive: 27.1 µM [inhibitor, partial curve, poor fit]"
same,Potency,[1],"inconclusive: 44.7 µM [inhibitor, partial curve, poor fit]"
COc1cc2c(cc1OC)[C@H](C)N(CC1C(=O)O[C@@H]3C[C@@]4(C)CCC[C@H](C)[C@@]45OC5[C@H]13)CC2 (stereo partly drawn),Potency,[11],active: 35.5 µM
same,Potency,[12],"inconclusive: 11.2 µM [inhibitor, full curve]"
same,Potency,[13],"inconclusive: 10 µM [inhibitor, partial curve, poor fit]"
Cc1nc2cnc(N3CCN(C)CC3)nc2n(Cc2ccc(F)cc2)c1=O,Potency,[11],inactive
same,Potency,[14],"inconclusive: 12.6 µM [cytotoxic, partial curve, poor fit]"
same,Potency,[13],"inconclusive: 7.08 µM [inhibitor, partial curve, poor fit]"
COc1ccc(-c2nc3cnc(N4CCNCC4)nc3n(CCc3ccccc3)c2=O)cc1,"activity change, negative = inhibition",[15],active: 111% [activator]
same,"activity change, negative = inhibition",[16],inconclusive: 115% [activator]
same,"activity, negative = inhibition",[17],inconclusive: 265% [activator]
same,Potency,[18],"inconclusive: 20 µM [activator, partial curve]"
same,Potency,[19],"inconclusive: 3.16 µM [fluorescent, side channel, partial curve]"
same,Potency,[11],"inconclusive: 50.1 µM [inhibitor, partial curve, poor fit]"
same,Potency,[14],"inconclusive: 25.1 µM [cytotoxic, partial curve]"
same,Potency,[13],"inconclusive: 8.91 µM [inhibitor, partial curve, poor fit]"
